Results reported in the supplement of paper PMC3334620.
In all, about 33,000 sequences were measured (“E-score (-0.5 to 0.5)”: median about -0.043, highest 2% from about 0.37 on). This is one part of the list.

Each sequence was assayed against T1, Upc2 (UniProt Q12151) (assay: PBM E-score (8-mer binding enrichment) (E-score (-0.5 to 0.5)); higher = stronger / more preferred TF binding; most listed sequences are background and not binding sites). Conditions: protein concentration: 200 nM; construct: GST-full length.
T1 sequence: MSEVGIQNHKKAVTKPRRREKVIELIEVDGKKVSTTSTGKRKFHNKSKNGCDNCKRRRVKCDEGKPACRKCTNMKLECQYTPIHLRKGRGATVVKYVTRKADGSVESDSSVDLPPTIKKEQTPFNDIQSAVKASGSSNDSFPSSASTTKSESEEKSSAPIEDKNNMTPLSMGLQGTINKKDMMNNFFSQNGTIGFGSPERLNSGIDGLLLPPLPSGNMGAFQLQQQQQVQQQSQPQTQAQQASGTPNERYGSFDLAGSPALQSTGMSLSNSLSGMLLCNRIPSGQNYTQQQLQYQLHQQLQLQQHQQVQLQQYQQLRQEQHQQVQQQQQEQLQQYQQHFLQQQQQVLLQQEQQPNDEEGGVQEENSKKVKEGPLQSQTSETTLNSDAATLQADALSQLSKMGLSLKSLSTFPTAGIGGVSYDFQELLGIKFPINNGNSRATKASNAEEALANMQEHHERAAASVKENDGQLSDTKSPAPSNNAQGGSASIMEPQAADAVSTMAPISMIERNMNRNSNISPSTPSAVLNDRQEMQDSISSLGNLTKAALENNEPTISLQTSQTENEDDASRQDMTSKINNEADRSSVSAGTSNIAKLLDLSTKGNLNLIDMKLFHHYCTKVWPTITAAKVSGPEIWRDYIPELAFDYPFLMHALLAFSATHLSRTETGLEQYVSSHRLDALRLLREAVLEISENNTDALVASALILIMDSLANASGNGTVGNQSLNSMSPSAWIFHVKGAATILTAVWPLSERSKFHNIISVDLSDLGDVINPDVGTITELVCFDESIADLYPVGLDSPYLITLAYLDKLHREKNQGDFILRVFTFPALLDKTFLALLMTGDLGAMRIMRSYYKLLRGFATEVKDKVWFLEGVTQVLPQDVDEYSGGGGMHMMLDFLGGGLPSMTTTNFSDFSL
In short: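 Universal all-10-mer Agilent arrays, double-stranded by primer extension on fresh or once-stripped slides, were probed with about 100-200 nM GST-tagged yeast transcription factors made by PURExpress. Fluorescent anti-GST detected bound protein, and masliner normalised the scans. E-scores from the Universal PBM Analysis Suite were given to each ungapped eight-base word pooled with its reverse complement.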

Compared with GGGCGCTA, ATCCCAAG is lower in “PBM E-score” value: -0.158 for the first, -0.27 for the second.

Compared with CGTCCAAG, ATCTTATC is higher in “PBM E-score” value: -0.236 for the first, 0.0902 for the second.

First: TGTCTAAA
Second: CCTGGGTC
The “PBM E-score” value of the first is higher: 0.14 for the first, -0.293 for the second.

First: AGTTGATG
Second: AAGTACAG
The “PBM E-score” value of the first is higher: -0.0293 for the first, -0.174 for the second.

Compared with ATCTGAAG, AATCGTTC is higher in “PBM E-score” value: -0.202 for the first, 0.396 for the second.

First: AAATTGCT
Second: CGCAGCAA
The “PBM E-score” value of the first is higher: 0.0818 for the first, -0.211 for the second.

Going from AAAATCCA to GACTACCC, the “PBM E-score” value falls from 0.0293 to -0.0524.

First: AATAGGCG
Second: AACTCTGT
The “PBM E-score” value of the first is higher: -0.106 for the first, -0.12 for the second.

Going from CGCCTACC to AGACGTGC, the “PBM E-score” value rises from -0.0354 to 0.0541.

First: GCGTAAGA
Second: AGCCTGTA
The “PBM E-score” value of the first is higher: 0.217 for the first, -0.143 for the second.

Going from AACGGAGG to AGCATTGC, the “PBM E-score” value falls from 0.224 to 0.0722.

First: GGGTACAA
Second: CGGCAAAG
The “PBM E-score” value of the first is higher: -0.0246 for the first, -0.133 for the second.

Going from ACGTTTCA to CGACCGGC, the “PBM E-score” value falls from 0.116 to -0.0744.

First: ACCATCAC
Second: GCGAACTA
The “PBM E-score” value of the first is lower: -0.0129 for the first, 0.0498 for the second.

First: AGACTGCT
Second: AGATCTGC
The “PBM E-score” value of the first is higher: -0.0699 for the first, -0.15 for the second.

Compared with GCGTTCCC, AAACATCT is lower in “PBM E-score” value: 0.0703 for the first, 0.03 for the second.

First: GGTATCCA
Second: GTTGGTCA
The “PBM E-score” value of the first is lower: -0.0137 for the first, 0.0287 for the second.

Compared with AACTAGCA, ACATCCTG is higher in “PBM E-score” value: -0.134 for the first, -0.0536 for the second.

Going from AGTAATCG to AATCTGTA, the “PBM E-score” value falls from 0.13 to -0.0463.

Compared with ATCACATC, GTCCTACA is higher in “PBM E-score” value: -0.125 for the first, 0.0243 for the second.

Going from ACTTGATC to GGACGTTA, the “PBM E-score” value falls from -0.0744 to -0.0764.

First: AGCATAAG
Second: CATTTAAC
The “PBM E-score” value of the first is lower: -0.205 for the first, 0.0774 for the second.

Going from CTCGCCAC to CCCAAGGA, the “PBM E-score” value falls from -0.0753 to -0.359.

First: GTATCGAC
Second: ATTCACCG
The “PBM E-score” value of the first is higher: 0.138 for the first, -0.00469 for the second.

First: CAACGGGG
Second: CCGTCAAG
The “PBM E-score” value of the first is higher: -0.0318 for the first, -0.337 for the second.

Compared with AACAATAA, ATCACCAT is lower in “PBM E-score” value: 0.00589 for the first, -0.133 for the second.

Compared with AAACGCCG, AGTCTAAC is lower in “PBM E-score” value: 0.282 for the first, -0.118 for the second.

Compared with ACCTCTGA, GAGAGGGC is lower in “PBM E-score” value: -0.16 for the first, -0.244 for the second.

Going from GCAACACA to AACCATGT, the “PBM E-score” value rises from -0.116 to -0.0813.

First: ACCGAATG
Second: GTAGAGTA
The “PBM E-score” value of the first is higher: 0.147 for the first, 0.126 for the second.

First: GGTCACAA
Second: GACTAATC
The “PBM E-score” value of the first is lower: -0.0498 for the first, 6e-05 for the second.

Going from GTCCCAAC to ACTAATTC, the “PBM E-score” value rises from -0.262 to 0.0282.

Going from CAAGGTGC to AACCTGGC, the “PBM E-score” value rises from -0.263 to -0.0924.

Compared with CGAGATGA, CCCCTGGC is lower in “PBM E-score” value: 0.233 for the first, -0.237 for the second.

Compared with CAGTGAAG, ATCTTGGG is lower in “PBM E-score” value: -0.245 for the first, -0.31 for the second.

First: AGTGATTC
Second: ACGGTAAT
The “PBM E-score” value of the first is lower: -0.0528 for the first, 0.139 for the second.

Going from ACATCAGA to AAAGGCCC, the “PBM E-score” value falls from -0.0274 to -0.141.

First: AGCATTCA
Second: GATGCATC
The “PBM E-score” value of the first is lower: -0.164 for the first, 0.0421 for the second.

Compared with ATCCATAA, CCTGAGCG is lower in “PBM E-score” value: 0.196 for the first, 0.162 for the second.

First: TACGTCAA
Second: ACCATTAA
The “PBM E-score” value of the first is lower: 0.0633 for the first, 0.111 for the second.

Compared with ATTCCTTA, AACCCAGA is higher in “PBM E-score” value: -0.111 for the first, -0.0878 for the second.

Going from AACTAATG to CTGTGCAA, the “PBM E-score” value falls from -0.0822 to -0.14.

Compared with CCGTGACC, AACGGTGT is higher in “PBM E-score” value: -0.357 for the first, 0.283 for the second.
